Reference: PubChem BioAssay AID1240 (Sanford-Burnham Center for Chemical Genomics, 2008)
Among all 50,000 compounds or so, about 800 (1.6%) showed an effect of 50% or more. This is one part of the list.

molecular target: Bcl-2-like protein 10 (Homo sapiens) (UniProt Q9HD36); assay: TR3 peptide-Bcl-B binding displacers, biochemical primary FP assay, phenotype converters (AID 1240); conditions: GST-Bcl-B / FITC-TR3 peptide fluorescence polarization; stronger effect = higher value; compound at 3.75 mg/L;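 note: 0% = Bcl-B with tracer peptide and DMSO and 100% = tracer peptide lacking Bcl-B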
Chain of UniProt Q9HD36 (Q9HD36 whole entry, looked up): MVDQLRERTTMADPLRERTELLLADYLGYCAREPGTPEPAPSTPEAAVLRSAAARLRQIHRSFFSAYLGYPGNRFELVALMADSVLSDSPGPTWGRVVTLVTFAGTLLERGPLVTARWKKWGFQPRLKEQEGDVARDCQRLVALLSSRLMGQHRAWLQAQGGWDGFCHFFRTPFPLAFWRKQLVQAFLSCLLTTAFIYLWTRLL

Compared with COc1ccc(C(=O)N2CCN(Cc3cccc(C)c3)CC2)cc1, COc1cc(OC)cc(C(=O)N2CCN(C(=O)Cc3ccccc3)CC2)c1 is higher in displacement: -21.6% for the first, -19.3% for the second.

First: Cc1ccc2nc(-c3ccc(OCC(=O)N/N=C/c4ccc([N+](=O)[O-])o4)cc3)cc(-c3ccccc3)c2c1
Second: COc1ccc(CNC(=O)CSc2nc(-c3ccccc3)c(-c3ccccc3)[nH]2)cc1
The displacement of the first is lower: -16.7% for the first, -1.3% for the second.

First: CCC1CCc2c(sc(NC(=O)c3ccccc3Br)c2C(=O)OC)C1 (centres undefined)
Second: O=C(Nc1sc2c(c1C(=O)O)CCCCC2)c1ccco1
The displacement of the first is higher: 0.1% for the first, -0.5% for the second.

Compared with COc1cccc(N2C(=O)/C(=C/c3ccccc3C(=O)O)SC2=S)c1, O=C1/C(=C/c2ccccc2[N+](=O)[O-])SC(=S)N1c1cccc(Br)c1 is higher in displacement: -4.7% for the first, 11.9% for the second.

Going from Cc1cc(N2C(=O)NC(=O)/C(=C\c3ccc(C(=O)O)cc3)C2=O)ccc1Br to CSc1ccc(/C=C2\C(=O)NC(=O)N(c3ccc(Br)c(C)c3)C2=O)cc1, the displacement rises from -8.3% to -4.9%.

Compared with CCc1ccccc1NC(=O)c1nn2c(c1Cl)NC(c1ccc(C)cc1)CC2C(F)(F)F (centres undefined), COc1ccc(NC(=O)c2cnn3c2NC(c2ccco2)CC3C(F)(F)F)c(OC)c1 (centres undefined) is higher in displacement: -3.5% for the first, 3.2% for the second.

Going from NS(=O)(=O)c1cccc(NC(=O)COc2ccccc2)c1 to O=C(COc1ccccc1)Nc1cc(-c2ccc(F)cc2)[nH]n1, the displacement rises from 2.5% to 8.3%.

Compared with COc1ccccc1C1/C(=C(\O)c2ccccc2)C(=O)C(=O)N1CCN(C)C (centres undefined), C=CCn1c(=O)c(C(=O)Nc2ccccc2)c(O)c2ccccc21 is higher in displacement: -22.8% for the first, 14.9% for the second.

Going from O=C(NCC1OCCc2ccccc21)c1ccco1 (centres undefined) to O=CN1Cc2ccccc2-c2ccccc2C1, the displacement rises from -6.5% to 9.1%.

Going from Cc1cc(/C=C2\C(=O)NC(=S)N(c3ccc(Cl)cc3)C2=O)c(C)n1C to COc1ccc(N2C(=O)/C(=C\c3cc(C)n(-c4ccccc4)c3C)SC2=S)cc1, the displacement falls from 29.5% to 27.3%.

First: O=C(Nc1ccccc1C(=O)c1ccccc1)c1ccccc1
Second: O=C(Nc1ccccc1)c1cccc(C(=O)Nc2ccccc2)c1
The displacement of the first is lower: -6.4% for the first, -0.1% for the second.

Compared with Cc1ccc(S(=O)(=O)Oc2ccc(/C=C3\SC(N)=NC3=O)cc2Br)cc1, Cc1cccc(N2C(=O)/C(=C/c3ccc(I)cc3)SC2=S)c1 is lower in displacement: 1.8% for the first, -4.4% for the second.

First: CCOc1ccc(C(=O)Nc2ccc(-c3nc4ccc(C)cc4o3)cc2)cc1Cl
Second: CCOc1ccc(NC(=O)C2=C(C)NC(=S)NC2c2ccc(C)cc2)cc1 (centres undefined)
The displacement of the first is higher: 104% for the first, -4.5% for the second.

First: S=c1[nH]nc(CSc2nc3ccccc3s2)n1-c1ccccc1
Second: COc1ccc(C(=O)Nc2cccc(-c3nc4ccccc4s3)c2)cc1Br
The displacement of the first is higher: 14.2% for the first, 3.5% for the second.

Going from CCOC(=O)C1=NN(c2ccccc2)C(=O)C1OC(C)=O (centres undefined) to CCOC(=O)c1cccc(NC(=O)c2ccncc2)c1, the displacement falls from 12.9% to 9.1%.

Going from Clc1ccc2nc(N/N=C/c3ccc4ncccc4c3)nc(-c3ccccc3)c2c1 to O=C(Nc1ncc(Cc2cccc3ccccc23)s1)c1ccc(Cl)cc1, the displacement falls from -2.6% to -3.1%.

Going from CC(=O)c1ccc(NC(=O)c2cnn3c(C(F)(F)F)cc(-c4cccs4)nc23)cc1 to COCCOC(=O)c1ccc(NC(=O)c2cc3ccccc3oc2=O)cc1, the displacement falls from 7.3% to -5.9%.

First: COc1ccc(C(=O)CC(=O)C(C)(C)C)cc1
Second: CCOC(=O)C1=C(O)/C(=C\c2ccc(OC)cc2)N=C1C
The displacement of the first is higher: 15.1% for the first, 4.4% for the second.

Compared with O=C(c1ccccc1)N1CCN(c2ncnc3c2cnn3-c2ccccc2)CC1, O=C(Cn1c2ccccc2c(=O)c2ccccc21)N/N=C/c1ccc(N2CCCC2)c([N+](=O)[O-])c1 is lower in displacement: 3.8% for the first, 0.2% for the second.

First: O=C1NN(c2cccc(Cl)c2)C(=O)/C1=C\c1ccc(F)cc1
Second: O=C1S/C(=C\c2ccc(Br)cc2)C(=O)N1c1ccc(Cl)cc1
The displacement of the first is higher: 8.1% for the first, -3.3% for the second.

Going from COc1cc(N/N=C(\C)c2ccc(I)cc2)ncn1 to COc1ccc(N/C=C/C(=O)c2ccc(C)cc2)c(OC)c1, the displacement falls from -8.4% to -22.2%.

Compared with O=c1[nH]c(O)c(C=Nc2ccccc2C(F)(F)F)c(=O)[nH]1, O=C(CC1S/C(=N\N=C\c2ccccc2)NC1=O)Nc1ccc(C(=O)O)cc1 (centres undefined) is higher in displacement: 47.5% for the first, 69.5% for the second.

Going from CC(=O)N1CCCC1C(=O)Nc1ccc(C)cc1 (centres undefined) to CC1(C(=O)O)CCC(C(=O)Nc2ccc(S(N)(=O)=O)cc2)C1(C)C (centres undefined), the displacement falls from 5.8% to 1%.

Going from CC1=C(C(=O)OC2CCCCC2)C(c2ccccc2Br)NC(=O)N1 (centres undefined) to CCOC(=O)c1c(NC(=O)C2CCCCC2)sc(C)c1C, the displacement rises from 0.2% to 7%.

Compared with OC1CN=C2CCCc3c2n(c2ccc(Cl)cc32)C1 (centres undefined), Cc1c(-c2ccc(Cl)cc2)[n+](=O)c2c(n1[O-])CCC2 is lower in displacement: 1.2% for the first, 0.4% for the second.

Compared with CN1CCN(C(=O)c2ccc(F)c(F)c2)CC1, Cc1ccc(C(=O)N2CCC(C(N)=O)CC2)cc1[N+](=O)[O-] is higher in displacement: -9% for the first, -0.2% for the second.

First: COc1ccccc1C/C(N)=N/OC(=O)COc1ccc2ccccc2c1
Second: CCc1nnc(NS(=O)(=O)c2ccc(NC(=O)c3cc4ccccc4cc3OC)cc2)s1
The displacement of the first is lower: 5.6% for the first, 12% for the second.

Compared with COc1ccc(S(=O)(=O)Nc2cc([N+](=O)[O-])ccc2OC)cc1, CCn1c2ccccc2c2cc(CNc3cc([N+](=O)[O-])ccc3OC)ccc21 is higher in displacement: 6.6% for the first, 8.6% for the second.

Going from COCCOC(=O)c1c(C)oc2ccc(OCc3cccc(F)c3)cc12 to Cc1ccc(NC(=O)c2cccc(F)c2)cc1Cl, the displacement falls from 8.3% to -0.3%.

Compared with O=C(CSc1ccc(/C=N/NC(=O)c2ccncc2)o1)Nc1ccccc1, CC(C)(C)c1ccc(OCC(=O)Nc2ccc(NC(=O)c3ccco3)cc2)cc1 is lower in displacement: 8.9% for the first, -36% for the second.

First: O=C(CCNc1ccc(F)cc1)c1cccs1
Second: CCOc1ccc(NC(=O)C(=O)N/N=C/c2cccs2)cc1
The displacement of the first is higher: 5.2% for the first, -0.4% for the second.

Compared with COc1ccc(/C(C#N)=C\N2CCOCC2)c(OC)c1, CCN(CC)CCCNC(=O)c1ccc(OC)cc1OC is higher in displacement: -19.5% for the first, -3.5% for the second.

Going from CCCc1nn2c(N)c(/C=C3\C=C(Br)C=CC3=O)c(=O)nc2s1 to Cc1cc(C)c2nc3s/c(=C\c4cc(Br)ccc4O)c(=O)n3c2c1, the displacement falls from 6.1% to -17%.

Going from O=C(Nc1nc(-c2ccc(Br)cc2)cs1)c1cc2ccccc2o1 to O=C(N/N=C/c1ccc(Cl)c([N+](=O)[O-])c1)c1cc2ccccc2o1, the displacement rises from -0.4% to 1.4%.

Compared with CCOC(=O)c1c(NC(=O)c2cc3cc(Br)ccc3oc2=O)sc(C(C)=O)c1C, COc1ccc(Br)cc1C(=O)Nc1ccc(C)cc1[N+](=O)[O-] is lower in displacement: 31.5% for the first, 27.4% for the second.

Compared with O=C1/C(=C/c2ccc(-c3cccc([N+](=O)[O-])c3)o2)SC(=S)N1Cc1ccco1, O=C1/C(=C/c2ccc(O)cc2)SC(=S)N1Cc1ccco1 is lower in displacement: 9.9% for the first, -13.3% for the second.

First: Cc1c(Cl)cccc1NC(=O)/C(C#N)=C/c1ccc(I)o1
Second: Cc1ccc(NC(=O)c2cccc(Cl)c2Cl)c([N+](=O)[O-])c1
The displacement of the first is lower: -14.1% for the first, 6.6% for the second.

Going from CC(C)(C)c1ccc2[nH]c3c(c2c1)CCCC3=O to CCCCSc1nc2sc3c(c2c(=O)n1Cc1ccccc1)CCCC3, the displacement rises from 0.7% to 9.3%.

Compared with C/C(=N\N=C1\NC(=O)C(CC(=O)Nc2ccc(C(=O)O)cc2)S1)c1ccc([N+](=O)[O-])cc1 (centres undefined), O=C(O)c1cc(NC(=O)c2ccc(F)cc2)cc(NC(=O)c2ccc(F)cc2)c1 is lower in displacement: 13.2% for the first, -2% for the second.

Going from O=C(CCNC(=O)OCc1ccccc1)Oc1cc2oc(=O)cc(-c3ccccc3)c2cc1Cl to CCC(=O)N1c2ccccc2NC2=C(C(=O)CC(c3ccccc3)C2)C1c1cccc(Br)c1 (centres undefined), the displacement rises from -0.2% to 6%.

Compared with CC(=O)c1c(C)n(-c2ccc(N(C)C)cc2)c2ccc(O)cc12, CC(=O)N(C)c1ccc(NC(=S)Nc2ccc(F)cc2)cc1 is lower in displacement: 0.4% for the first, -10.8% for the second.

Going from O=C1CC(c2ccccc2)CC2=C1C(c1cccc3ccccc13)Nc1ccccc1N2 (centres undefined) to O=C1CC(c2ccccc2)CC(O)=C1C(C1=C(O)CC(c2ccccc2)CC1=O)c1ccc(O)c(O)c1 (centres undefined), the displacement rises from 6.1% to 10.8%.

Going from CC1=NN(C(=S)Nc2ccccc2)C(C)(C)C1 to COc1ccccc1C(=O)Nc1cc2nn(-c3ccc(C)cc3)nc2cc1C, the displacement falls from 0.5% to -9.2%.

Going from Cc1cc(/C=N/n2cnnc2)c(C)n1-c1cccc(Cl)c1 to Clc1ccc(-c2ncnn2-c2cccc(Cl)c2)cc1, the displacement falls from -2.8% to -4%.

Compared with O=C(/C=C/c1c[nH]c2ccccc12)c1ccc(Cl)cc1, Cc1ccc(C(=O)/C=C/c2ccc(-c3ccccc3Br)o2)cc1 is lower in displacement: 11.1% for the first, 10.4% for the second.

First: CC(C)(c1ccccc1)c1ccc(OCc2ccc(C(=O)O)o2)cc1
Second: COc1cccc(/C=C2/C=C(c3ccc(C)cc3)OC2=O)c1
The displacement of the first is lower: 6.8% for the first, 7.5% for the second.

First: Cc1ccc(Cl)cc1NC(=O)C1CC(=O)N(c2ccc(F)cc2)C1 (centres undefined)
Second: COc1ccc(/C=C/C(=O)c2ccc(F)cc2)c(OC)c1
The displacement of the first is lower: 6.6% for the first, 31.4% for the second.

Going from O=C(COc1ccc(Cl)cc1Cl)Nc1ccc2c(c1)OCO2 to Cc1cc(NC(=O)CCCOc2ccc(Cl)cc2Cl)no1, the displacement rises from 3.3% to 10.5%.

Compared with O=C(NCCCN1CCOCC1)c1ccc(Cl)cc1, N/C(=N\OC(=O)Cc1ccc(Cl)cc1)c1cccnc1 is lower in displacement: -3.7% for the first, -3.8% for the second.

First: CCC(C)C(=O)N1c2ccc(OC)cc2-c2c(ssc2=S)C1(C)C (centres undefined)
Second: CCOC(=O)c1c(-c2ccncc2)csc1N
The displacement of the first is lower: -16.3% for the first, 6.2% for the second.

First: O=C(N/N=C/c1cc(Cl)cc([N+](=O)[O-])c1O)c1ccc2c(c1)OCO2
Second: COc1cc(/C=N\NC(N)=S)ccc1OC(=O)c1cc(F)c(F)cc1Cl
The displacement of the first is higher: 20.5% for the first, 9.8% for the second.

Compared with O=C(NCCc1ccccc1F)C(=O)Nc1nccs1, COC(=O)c1cccc(/C=C/N(C)C)c1[N+](=O)[O-] is lower in displacement: 13.8% for the first, 13.7% for the second.

First: COc1cc(C=C2C(=O)NC(=O)NC2=O)cc(Cl)c1OCCOc1ccc(C)c(C)c1
Second: Cc1ccc(S(=O)(=O)Nc2cc(Cl)c(O)c(Cl)c2)cc1
The displacement of the first is higher: 3.1% for the first, 2.1% for the second.

Compared with Clc1ccc(CSc2nc3ncccc3[nH]2)cc1Cl, O=C1c2c(Cl)c(Cl)c(Cl)c(Cl)c2C(=O)N1c1cc2c(cc1Br)OCCO2 is lower in displacement: 9.4% for the first, -3.4% for the second.

For CCc1c(O)nc2n(c1=O)CCCS2, the displacement was 12.8%.
